Reference: PubChem BioAssay (NCI)
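Test compounds were applied to cells in 96-well plates for 48 hours at 5 doses. GI50: concentration for 50% inhibition of growth. The concentration for full growth arrest is given as TGI.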

System: NCI-H322M lung
Assay: DTP human tumour cell line panel, 48 h

O=C(N/N=C/c1ccco1)c1[nH]c2ccc(Br)cc2c1-c1ccccc1
GI50: 1.2 µM | TGI: 24.4 µM
